Results published in PubChem BioAssay AID488969 (Vanderbilt High Throughput Screening Facility, 2010).
In all, about 110,000 compounds were measured (“z-score”: median about -0.1, highest 2% from about 2 on). The list shows a part of the results. Active and inactive are the calls of the source.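 How the source made its calls: active means z-score in the third read window above 3 or below -3; inactive means the rest.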

These compounds were tested against Metabotropic glutamate receptor 8 (Rattus norvegicus) (UniProt P70579) (assay: mGluR8 Gi/Go-coupled signaling modulation – cell-based, rat, thallium flux, HTS, primary screen (AID 488969)). Settings: HEK293 rat mGluR8, GIRK (G protein-gated inwardly rectifying potassium channel) thallium flux, FluoZin2; at 10 µM; stronger effect = higher value; submaximal glutamate (EC20) added with thallium.
Sequence of UniProt P70579 (P70579 whole entry, looked up): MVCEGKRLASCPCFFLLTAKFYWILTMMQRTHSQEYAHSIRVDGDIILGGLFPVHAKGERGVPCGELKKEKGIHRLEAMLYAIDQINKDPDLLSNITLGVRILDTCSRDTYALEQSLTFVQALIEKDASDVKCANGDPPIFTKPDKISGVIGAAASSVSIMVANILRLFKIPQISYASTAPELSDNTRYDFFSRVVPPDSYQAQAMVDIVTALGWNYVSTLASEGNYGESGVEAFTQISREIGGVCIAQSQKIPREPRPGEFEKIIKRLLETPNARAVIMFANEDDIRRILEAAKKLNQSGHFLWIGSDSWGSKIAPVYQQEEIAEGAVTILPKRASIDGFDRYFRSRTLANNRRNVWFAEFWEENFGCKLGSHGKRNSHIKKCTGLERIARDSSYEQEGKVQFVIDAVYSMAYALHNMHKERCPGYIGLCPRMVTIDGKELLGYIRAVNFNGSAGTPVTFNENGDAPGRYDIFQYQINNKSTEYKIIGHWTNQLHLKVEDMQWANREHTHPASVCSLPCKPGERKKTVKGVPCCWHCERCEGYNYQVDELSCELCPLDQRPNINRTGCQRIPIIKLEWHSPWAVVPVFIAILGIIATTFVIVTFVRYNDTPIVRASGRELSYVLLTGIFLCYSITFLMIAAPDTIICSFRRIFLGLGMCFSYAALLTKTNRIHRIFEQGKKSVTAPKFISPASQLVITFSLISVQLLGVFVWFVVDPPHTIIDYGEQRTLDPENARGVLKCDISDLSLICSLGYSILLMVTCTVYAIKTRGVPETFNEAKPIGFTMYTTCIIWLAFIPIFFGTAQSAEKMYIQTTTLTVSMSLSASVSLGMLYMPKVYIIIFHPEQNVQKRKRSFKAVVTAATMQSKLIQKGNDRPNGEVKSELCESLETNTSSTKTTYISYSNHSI

Compound	z-score
CC(CCc1ccccc1)NC(=O)C1CCN(S(=O)(=O)c2cnc[nH]2)CC1 (configuration not stated)	0.0515
Cc1nc(N2CCOCC2)nc2c1CCCC2	-0.26
O=C(O)Cn1nc(-c2ccc(F)cc2)oc1=O	-1.05
CCC(C)(C)NC(=O)C(c1ccc(OC)cc1)N(Cc1cccs1)C(=O)CCC(=O)Nc1cc(C)on1 (configuration not stated)	-0.717
NC(=O)C1CCN(C(c2ccccc2Cl)c2nnnn2CC2CCCO2)CC1 (configuration not stated)	1.21
c1csc(-c2nn3c(Cn4cnc5ccccc54)nnc3s2)c1	-0.397
O=C(C(=O)N1CCc2ccccc2C1)c1cn(CC(=O)N2CCOCC2)c2ccccc12	0.736
Nc1nc2c(s1)CCc1c-2cnn1-c1ccccc1	-0.981
CCOC(=O)c1cccc(NC(=O)C2CCCN2S(=O)(=O)c2cccc3cccnc23)c1 (configuration not stated)	-0.226
CN(C)S(=O)(=O)c1ccc(NC(=O)c2ccc(Br)o2)cc1	0.638
CCC(c1nnc(SCC(=O)Nc2nnc(-c3ccccc3)o2)n1Cc1ccccc1)N(C)C (configuration not stated)	-0.274
O=[N+]([O-])c1ccc(NNC(=S)Nc2ccccc2)cc1	0.785
COc1cc2nc(NC(=O)c3ccccc3)[nH]c(=O)c2cc1OC	-0.186
Cc1csc(NC(=O)c2c(O)c3c(n(CC(C)C)c2=O)CCCC3)n1	-0.248
CCCC(=O)N1CCN(c2ccc(NC(=O)C(C)(C)C)cc2)CC1	-0.0238
CCCCOc1ncnc2c1[nH]c1ccccc12	-2.09
O=C(c1ccc(=O)n(Cc2ccccc2)n1)N1CCN(C/C=C/c2ccccc2)CC1	-0.359
COc1ccccc1N/C(=N/S(=O)(=O)c1ccc(Cl)cc1)c1ccccc1	-0.274
COc1ccc(-c2cnc(SCC(=O)Nc3cc(C)on3)n2Cc2ccco2)cc1	-0.553
Cc1c(C(=O)NC(C)c2ccncc2)oc2ccccc12 (configuration not stated)	-0.233
CC1=C(C(=O)Nc2ccccc2)C(c2ccc(O)cc2)N2C(=O)CSC2=N1 (configuration not stated)	0.0242
Cc1ccc(C(=O)NCCCNc2ccc(C(F)(F)F)cc2[N+](=O)[O-])cc1	-0.325

Compound	z-score
Cc1cccc(/C=N/c2sc3c(c2C(=O)OC(C)(C)C)CCN(C)C3)c1O	0.0245
CCN(CC(=O)NC1CCS(=O)(=O)C1)c1nc(-c2cccnc2)nc2ccccc12 (configuration not stated)	-0.646
CSc1nnc(C)c(=O)n1COC(=O)COc1ccccc1	-0.0718
CCn1ncc(Br)c1C(=O)Nc1ccc(C(=O)OC(C)C)cc1	0.0146
CCOc1ccc2nc(SCC(=O)NC(=O)NCc3ccco3)sc2c1	0.447
CC(C)NC(=O)CSc1ccccc1C(=O)NCc1ccc2c(c1)OCO2	-0.212
CS(=O)(=O)N(CC(=O)N1CCCCC1)c1ccc(Cl)c(C(F)(F)F)c1	-0.304
COC(=O)COC(=O)c1ccccc1NC(=O)c1ccccc1	-0.448
COc1ccc(NC(=O)CSc2nnc(Cc3cccn3C)n2-c2ccc(F)cc2)cc1	-0.282
O=C(CSc1nnc(CNC(=O)C23CC4CC(CC(C4)C2)C3)n1-c1ccccc1)Nc1ccc(F)cc1	-1.07
N#C/C(=C\c1cc(Cl)cc(Cl)c1O)C(=O)NC1CCCCC1	-0.277
COc1ccccc1NC(=O)CSc1ncnc2c1oc1ccccc12	0.0834
CCN(c1ccccc1)S(=O)(=O)c1ccc(OCc2c(C)noc2C)cc1	-0.275
CN1CCN(CCCNC(=O)Cn2ncc3c4ccccc4n(C)c3c2=O)CC1	0.0091
O=c1c2oc3ccccc3c2[nH]c(=S)n1-c1ccccc1	0.645
COc1ccc2c(c1)CC/C(=C\c1ccc(OC)c(Cn3cccn3)c1)C2=O	-0.628
COc1ccc(NC(=O)/C(C#N)=C/c2c(C)nn(-c3ccc(F)cc3)c2Cl)cc1Cl	-0.53
CCOc1ncccc1C(=O)OCC(=O)NCCc1ccccc1	0.0466
COc1ccc(S(=O)(=O)N2CCC(C(=O)N3CCc4ccccc4C3)CC2)cc1	-0.209
Cc1ccc(-c2csc3nnc(SCC(=O)NCc4ccco4)n23)cc1	1.78
Cc1cccc(CSc2cccc3cccnc23)c1	active: 8.5
Cc1nc(-c2ccccc2)sc1C(=O)/C=C/c1ccccc1	0.327

Compound	z-score
CCCc1cc2c(=O)c(-c3ccc4c(c3)OCCO4)c(C)oc2cc1OS(C)(=O)=O	0.121
COc1ccc(NC(=O)c2cccnc2Nc2ccc(OC)cc2)cc1	0.757
Cc1sc2ncnc(NCc3cccs3)c2c1C	-0.314
COc1ccc(OC)c2sc(N3CCCCC3)nc12	0.0115
Clc1ccc(-c2csc(N/N=C/c3cccnc3)n2)c(Cl)c1	-0.14
O=C(Nc1cccnc1)c1cccc(NC(=O)c2ccco2)c1	-0.105
Cc1c(NC(=O)C(C)Sc2nnc(-c3ccccc3)o2)c(=O)n(-c2ccccc2)n1C (configuration not stated)	-0.308
Cc1nc2cc(NC(=O)Nc3nccs3)ccc2n1C	-0.136
C=CCn1c(Cc2cccs2)nnc1SCC(=O)Nc1ccc(OC)c(OC)c1	0.0201
Cc1nnc2sc(-c3ccc(NC(=O)c4cccnc4)cc3)nn12	-0.542
CCOc1ccc(NC(=NCc2ccc3c(c2)OCO3)SC2CC(=O)N(c3ccc(OCC)cc3)C2=O)cc1 (configuration not stated)	-1.22
COc1ccccc1CN(CC(=O)NCc1ccc2c(c1)OCO2)C(=O)c1ccc2c(c1)OCCO2	-0.297
CCN(CC)C(=O)Nc1ccc(C(=O)OC)cc1	-0.62
Cc1cc(/C=C2\C(=N)N3C(SCc4ccccc4)=NSC3=NC2=O)c(C)n1Cc1ccccc1	0.143
COc1ccccc1C1C(C#N)=C(N)Oc2cc(C)n(Cc3ccccn3)c(=O)c21 (configuration not stated)	-0.178
Cc1nc2sc(-c3ccccc3)cc2c(=O)[nH]1	0.314
CCCCCn1nc(C)c(/C=N/NC(=O)c2ccoc2C)c1C	-0.359
COc1ccc(-c2nsc3c(N4CCN(S(=O)(=O)c5ccccc5F)CC4)ncnc23)cc1	-0.298
CCOC(=O)c1ccc(NC(=O)NC2CC3CCC(C2)N3Cc2nnnn2Cc2ccco2)cc1 (configuration not stated)	-0.985
CC1=CCC(Cc2nc3ccccc3o2)C1(C)C (configuration not stated)	-0.293
Cc1ccc(Cn2c(Sc3nccc(C)n3)nc3c2c(=O)[nH]c(=O)n3C)cc1	0.024
C=CCn1cc(-c2ccc(Cl)cc2)cc(C#N)c1=O	-0.444

Compound	z-score
COC(=O)c1cccc(COC(=O)c2cccnc2SC)c1	-0.0421
Cc1cccc2cc(CN(CC3CCCO3)C(=O)NC3CCCCC3)c(=O)[nH]c12 (configuration not stated)	-0.392
O=C1C2(c3ccccc3)CN(CCO)CC1(c1ccccc1)CN(CCO)C2	-0.0183
Cn1cc(-c2nnnn2-c2ccc(Cl)cc2)c(C(F)(F)F)n1	0.131
CCc1cccc(CC)c1NC(=S)NCc1ccc2c(c1)OCO2	-0.582
COc1cccc(/C=N/NC(=O)CCn2nnc3ccccc32)c1	2.1
COc1ccc(N2CCN(Cc3nc4ccccc4c(=O)[nH]3)CC2)cc1	-0.0381
c1cncc(-c2nc(-c3ccco3)cs2)c1	-0.0789
CCCCN(CCCC)c1nc2ccccc2nc1C(C#N)C(=O)NCCCOC (configuration not stated)	active: 6.64
Cc1noc(C)c1C(=O)NCCCN1CCCC1=O	0.206
COC(=O)C(C#N)C(=C1C(=O)CC(C)(C)CC1=O)c1ccc(O)cc1 (configuration not stated)	0.478
CCn1c2ccccc2c2cc(N=C3SC(CC(=O)Nc4ccccc4)C(=O)N3C)ccc21 (configuration not stated)	-0.116
CN(C)c1cccc(C(=O)Nc2cccc(F)c2)c1	-0.274
CC(=O)Nc1sc2c(c1CN1CCN(C)CC1)CCCC2	0.0499
COc1cc(C(=O)N2CCN(c3ncnc4sc(C)c(C)c34)CC2)cc(OC)c1OC	-0.77
CC1CCN(S(=O)(=O)c2ccc3c(c2)oc(=O)n3CC(=O)N2c3ccccc3CC2C)CC1 (configuration not stated)	0.0729
Cn1nc(-c2ccc(C(=O)O)cc2)c2ccccc2c1=O	-0.386
CO/N=C(\Cn1ncc(NC2CCCCC2)c(Br)c1=O)c1ccc(Cl)cc1	-0.575
COc1cccc(/C=N/NC(N)=S)c1OCc1cccc(Cl)c1	0.111
Cc1c(NC(=O)CCC(=O)N2CCOCC2)c(=O)n(-c2ccccc2)n1C	0.107
O=C(c1nc2n(n1)C(c1ccc(Cl)cc1)C=C(c1ccccc1)N2)N1CCOCC1 (configuration not stated)	-0.388
Cc1cc(C)n(CC(O)CN(c2ccccc2)S(=O)(=O)c2ccccc2)n1 (configuration not stated)	-0.261

Compound	z-score
COc1ccc(CCNC(=O)c2cc3ccccn3n2)c(OC)c1OC	-0.0894
C/C(N)=C(/C#N)C(=O)CSc1nnc(Nc2ccccc2C)s1	-0.126
Cc1ccc([N+](=O)[O-])c(OCC(=O)OCC(=O)c2ccccc2)c1	-0.274
Cc1nnc(-c2cnn(C)c2N)n1Cc1ccc(Cl)cc1	0.289
Cc1cc(Cl)cc(Br)c1OCCCN1C(=O)NC(C)(C)C1=O	-0.0538
Cc1ccc(Nc2nnc(-c3ccncc3)s2)c(Br)c1	0.13
CCOc1ccc(CCNC(=O)c2ccc(CNS(=O)(=O)c3ccccc3)cc2)cc1OCC	-0.309
Cc1ccccc1-c1nc(CN2CCCC(C(=O)NCc3cccnc3)C2)c(C)o1 (configuration not stated)	-0.423
O=C1NC(NS(=O)(=O)c2ccccc2)(C(F)(F)F)C(=O)N1c1ccc(F)cc1 (configuration not stated)	0.256
Cc1csc(NC(=O)CSc2nnc(-c3cc(C)on3)o2)n1	0.301
Cc1csc(SCCn2c(N3CCN(c4ccccc4)CC3)nc3c2c(=O)[nH]c(=O)n3C)n1	1.74
COc1ccc(NC(=O)C(=O)NCCN2CCN(C(=O)C(c3ccccc3)c3ccccc3)CC2)cc1	-0.158
Cc1ccnc(NC(=O)C2CCN(S(=O)(=O)c3cccc4nonc34)CC2)c1	-0.149
Cc1cc(C)n2c(Br)c(CSc3nc4ccccc4o3)nc2n1	0.47
Cc1occc1-c1nnc(SCC(=O)Nc2nc(-c3ccccc3)cs2)o1	-0.197
O=C(/C=C/c1ccco1)NC(=S)Nc1ccc(O)c(-c2nc3ccccc3s2)c1	-0.032
COc1ccc(C2=CSC3=C(C(=O)c4cccc(S(=O)(=O)N(C)C)c4)CCN23)cc1	-0.29
COc1ccc(N2C(=O)C3C(C2=O)C2C=CC3C23CC3)c(OC)c1 (configuration not stated)	1.27
C/C=C/CSc1nc2c(c(=O)[nH]c(=O)n2C)n1C(C)C	0.377
